Measurements as given in PubChem BioAssay AID360 (National Center for Advancing Translational Sciences (NCATS), 2006).
Hit rate of the full screen: of about 48,000 compounds, about 550 (1.1%) were called active. Inconclusive results (about 4%) are left out. Rule as the data show it: active = potency below about 15 µM; inconclusive = mostly about 16 µM to 33 µM; inactive = weaker than that. This is one part of the list.

Molecular target: Lysosomal acid glucosylceramidase (Homo sapiens) (UniProt P04062)
Assay: Glucocerebrosidase;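 also: the screen sought inhibitors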
Details: purified enzyme, resorufin glucoside fluorescence (screen aimed at inhibitors), 20 min; series mostly up to 77 µM
How it was run: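 Normal human glucocerebrosidase (0.2 nM final) was assayed with resorufin β-D-glucopyranoside (30 uM final) in 50mM citric acid/KH2PO4, 10mM sodium taurocholate, 0.01% tween-20, pH 5.9. Compounds were titrated; fluorescence (Ex 548, Em 600) read after 20 min at RT.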
Potency is read from the fitted curve at half-maximal effect.

UniProt P04062, sequence (P04062 whole entry, looked up): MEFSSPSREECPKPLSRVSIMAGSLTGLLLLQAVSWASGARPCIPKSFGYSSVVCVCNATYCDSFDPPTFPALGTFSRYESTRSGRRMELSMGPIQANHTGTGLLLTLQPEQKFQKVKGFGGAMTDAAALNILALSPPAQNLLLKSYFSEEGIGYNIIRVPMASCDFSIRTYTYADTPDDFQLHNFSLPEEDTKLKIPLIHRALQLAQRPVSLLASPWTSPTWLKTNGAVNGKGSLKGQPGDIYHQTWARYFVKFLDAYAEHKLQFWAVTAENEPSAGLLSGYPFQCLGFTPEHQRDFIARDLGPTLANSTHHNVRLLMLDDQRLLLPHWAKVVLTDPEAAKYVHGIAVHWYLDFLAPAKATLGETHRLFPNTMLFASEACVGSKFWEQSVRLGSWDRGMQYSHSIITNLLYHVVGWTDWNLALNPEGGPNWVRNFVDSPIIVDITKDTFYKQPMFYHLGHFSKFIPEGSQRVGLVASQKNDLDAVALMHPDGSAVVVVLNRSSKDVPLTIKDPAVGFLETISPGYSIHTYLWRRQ

Potency, inactive:
O=C(NCCc1ccc(Cl)cc1)C1CCN(C(=O)c2sccc2-n2cccc2)CC1 > 76.9 µM
C=CCNc1nc(NC(C)(C)CO)nc(OCC)n1 > 76.9 µM
COc1cccc(NC(=O)N(Cc2cc3cc(C)cc(C)c3[nH]c2=O)CC2COCCO2)c1 (stereo not given) > 76.9 µM
CC(C)Cn1cc(C(=O)NCC2CCCO2)c2c3ccccc3n(C)c2c1=O (stereo not given) > 76.9 µM
Cc1ccnc2nc(C(=O)NC3=NCCS3)nn12 > 76.9 µM
C=CCNc1ncnc2c1ncn2C1OC(CO)C(O)C1O (stereo not given) > 76.9 µM
CCOc1ccc(C(=O)N(CN2CCCC2=O)c2ccccc2)cc1 > 76.9 µM
COCCNC(=O)C(OC(=O)CC1Sc2ccccc2NC1=O)c1ccncc1 (stereo not given) > 76.9 µM
O=C(NCC1CCCO1)C1CCCN1C(=O)NC1CCCCC1 (stereo not given) > 76.9 µM
O=C(NCc1cccs1)c1ccccc1C(=O)NCc1cccs1 > 76.9 µM
O=C(O)Cc1ccc(C(=O)c2cccs2)s1 > 76.9 µM
CCCCN1CC(C(=O)NC2CCCCC2)CC1=O (stereo not given) > 76.9 µM
Cn1c(=O)c2c(nc(CN3CCC(C(N)=O)CC3)n2Cc2c(F)cccc2Cl)n(C)c1=O > 76.9 µM
Cc1ccc(C)c(C(=O)c2c(C)nc3sccn23)c1 > 76.9 µM
Cc1ccc(NC(=O)CSc2nnc(NC(=O)CN3CCOCC3)s2)cc1 > 76.9 µM
C/C(N)=C(\C#N)C(=O)NCCc1ccccn1 > 76.9 µM
c1ccc(-c2csc3nnc(SCc4ccc5c(c4)OCCO5)n23)cc1 > 76.9 µM
C=CCSc1nnc(-c2ccccc2NC(=O)CC)c(=O)[nH]1 > 76.9 µM
O=C(OCCNC(=O)c1cc2ccccc2oc1=O)c1cccnc1 > 76.9 µM
Cc1nc(N2CCC3(CC2)OCCO3)c2nnn(Cc3ccccc3F)c2n1 > 76.9 µM
CCOc1ccc(NC(=O)CSc2nnc(-c3ccccn3)n2N)cc1 > 76.9 µM
Cc1ccc(NC(=O)CC2NCCNC2=O)cc1 (stereo not given) > 76.9 µM
COC(=O)c1[nH]c2ccc(F)cc2c1NS(=O)(=O)c1ccc(OC)cc1OC > 76.9 µM
O=C(NC12CC3CC(CC(C3)C1)C2)N1CCC(O)(c2ccc3c(c2)OCO3)CC1 > 76.9 µM
CCc1nn2c(=O)cc(CSc3nc4sc5c(c4c(=O)n3C)CCCC5)nc2s1 > 76.9 µM
CC(C)(C)n1ncc2c(=O)n(CC(=O)Nc3ccccc3)cnc21 > 76.9 µM
COc1cccc(C2C(C#N)=C(N)OC(C(C)(C)C)=C2C#N)c1 (stereo not given)
O=C(CSc1oc(-c2ccc(F)cc2)nc1S(=O)(=O)c1ccc(F)cc1)NCC1CCCO1 (stereo not given) > 76.9 µM
CC(C)NC(=O)CN(C(=O)CCC(=O)Nc1ccccn1)c1ccc(F)c(Cl)c1 > 76.9 µM
N#Cc1ccccc1NC(=O)c1ccccc1OCC(=O)NCc1ccco1 > 76.9 µM
COc1ccc(OC)c(NC(=O)CSc2nnc(CNc3ccc(F)cc3)o2)c1 > 76.9 µM
COC(=O)c1ccccc1NC(=O)CSc1nc2ccccc2c(=O)[nH]1 > 76.9 µM
CC(C)OC(=O)CSc1nnc(Cc2ccccc2)n1Cc1ccco1 > 76.9 µM
COc1ccc(-c2noc(CCC(=O)Nc3cccnc3)n2)cc1OC > 76.9 µM
Cc1ccccc1Cc1c(C)nc2c(C(=O)NCc3ccco3)cnn2c1C > 76.9 µM
Cc1ccc(Cl)c2c1NC(=O)C2(O)CC(=O)c1ccccc1O (stereo not given) > 76.9 µM
Cc1cccc2cc(COC(=O)C(C)(C)C)c(=O)[nH]c12 > 76.9 µM
O=S(=O)(c1ccccc1S(=O)(=O)N1CCCCC1)N1CCCCC1 > 76.9 µM
Cc1ccc2c(c1)CCCN2C(=O)c1ccncc1 > 76.9 µM
COCCNC(=O)c1cc2c(-c3ccccc3F)nn(C)c2s1 > 76.9 µM
CCOC(=O)CCC(=O)NCc1ccc2c(c1)cc(C)n2C > 76.9 µM
CCS(=O)(=O)NCC(c1cccnc1)N1CCN(c2ccc(F)cc2)CC1 (stereo not given) > 76.9 µM
O=C(CCN1C(=O)C2C3C=CC(C3)C2C1=O)NCCc1ccccc1Cl (stereo not given) > 76.9 µM
COc1cc(NC(=O)c2ccc3c(=O)n(Cc4ccco4)c(=S)[nH]c3c2)cc(OC)c1OC > 76.9 µM
Cc1ccc(S(=O)(=O)CCc2nnc(NC(=O)C3CCCO3)s2)cc1 (stereo not given) > 76.9 µM
COc1ccc(C(=O)CSc2nnc(-c3ccc(C)cc3)o2)cc1 > 76.9 µM
O=C(NCCO)c1ccc2c(c1)S(=O)(=O)c1ccccc1C2=O > 76.9 µM
COc1cc(C(=O)Nc2nc3ccccc3[nH]2)cc(OC)c1OC > 76.9 µM
O=C(Nc1nccs1)c1ccc(COc2ccc(Cl)cc2)o1 > 76.9 µM
COC(=O)Cc1c(C)c2ccc(OC(=O)c3ccco3)cc2oc1=O > 76.9 µM
O=C(O)CCCc1nc2ccccc2s1 > 76.9 µM
CSC(=O)CC(=O)NC(=O)c1ccccc1 > 76.9 µM
CC1(C)CC(=O)C(Sc2nnc(-c3ccc(NS(C)(=O)=O)cc3)n2Cc2ccco2)C(=O)C1 > 76.9 µM
COc1ccc(C(C)=O)cc1COC(=O)c1cccc(N(C)C)c1 > 76.9 µM
O=C(NCc1ccc(Cl)cc1)c1cc(-c2ccco2)on1 > 76.9 µM
COCCNC(=O)CN(CC1CCCO1)C(=O)CCC(=O)Nc1ccccn1 (stereo not given) > 76.9 µM
Cc1cccc(NC(=O)C(C)Oc2ccccc2C)n1 (stereo not given) > 76.9 µM
O=C(O)CCCNS(=O)(=O)c1ccc(NCc2ccccc2)c(C(=O)O)c1 > 76.9 µM
CCCc1cc(=O)[nH]c(SCC(=O)c2ccc(S(=O)(=O)N3CCCC3)cc2)n1 > 76.9 µM
CC1=C(C(N)=O)C(c2ccc(C)o2)C(C(N)=O)=C(C)N1 > 76.9 µM
CCOc1ccc(Cc2nc(C)c(CC(=O)N3CCCCC3)c(=O)[nH]2)cc1 > 76.9 µM
Cc1noc(C)c1COC(=O)CCN1c2ccccc2Sc2ccccc21 > 76.9 µM
COC(=O)c1ccccc1NC(=O)c1ccccc1NS(C)(=O)=O > 76.9 µM
Cc1cc(=O)[nH]c(SCn2nnc3ccccc3c2=O)n1 > 76.9 µM
COc1ccc(-c2cc3nc(C4CCN(C(=O)OC(C)(C)C)CC4)c(C(=O)O)cn3n2)cc1 > 76.9 µM
O=C(Nc1ccc(S(=O)(=O)N2CCCc3ccccc32)cc1)C1CCCO1 (stereo not given) > 76.9 µM
O=C(NCCCN1CCOCC1)c1cccs1 > 76.9 µM
COc1ccc(Cl)cc1S(=O)(=O)n1nnc2ccccc21 > 76.9 µM
CC1=C(C(=O)OCC2CCCO2)C(c2ccc(C)o2)C2=C(CC(c3ccc(N(C)C)cc3)CC2=O)N1 (stereo not given) > 76.9 µM
COC(=O)C1=C(C)N(CCc2ccccc2)C(=O)C1 > 76.9 µM
COc1cc2cc(C(c3nnnn3Cc3ccc(F)cc3)N3CCCCCC3)c(=O)[nH]c2cc1OC (stereo not given) > 76.9 µM
O=S(=O)(c1ccc(OCC(O)CN2CCN(c3ccc(F)cc3)CC2)cc1)N1CCOCC1 (stereo not given) > 76.9 µM
COC(=O)c1ccc(NC(=O)CSc2nnc(-c3ccncc3)n2N)cc1 > 76.9 µM
Cc1cc(NC(=O)CSc2nnc(-c3ccco3)o2)no1 > 76.9 µM
COc1ccc(OC(=O)CCCN2C(=O)c3ccccc3C2=O)cc1 > 76.9 µM
COC(=O)COc1cc(C)cc2oc(=O)c(CC(=O)OC)c(C)c12 > 76.9 µM
CCOC(=O)N1CCC(NC(=O)CCN2C(=O)COc3ccccc32)CC1 > 76.9 µM
Cn1c(=O)n(-c2ccccc2)c(=O)c2c3c(sc21)COC(C)(C)C3 > 76.9 µM
O=C(c1ccco1)N(CC1CCCO1)c1nc(-c2ccccc2)cs1 (stereo not given) > 76.9 µM
CCN(CC)S(=O)(=O)N1CCC(C(=O)NC(C)CCc2ccccc2)CC1 (stereo not given) > 76.9 µM
CC1(C)CC(=O)c2sc(N3CCCCC3)nc2C1 > 76.9 µM
COCCCNC(=O)CSc1nc2ccc(N3CCOCC3)cc2c(=O)n1CCc1ccccc1
CCCc1noc(-c2ccc(-c3ccccc3)cc2)n1 > 76.9 µM
COc1ccc(C2C3=C(CCCC3=O)Nc3nc4ccccc4n32)c(OC)c1OC (stereo not given) > 76.9 µM
O=S(=O)(Nc1nccs1)c1ccc(NS(=O)(=O)c2cccs2)cc1 > 76.9 µM
CCC1(c2ccccc2)NC(=O)N(CC(=O)Nc2ccc3c(c2)OCO3)C1=O (stereo not given) > 76.9 µM
O=C(NCC(c1cccnc1)N1CCN(c2ccccc2)CC1)c1ccco1 (stereo not given) > 76.9 µM
O=C(c1ccco1)N1CCC(c2nc(-c3ccc(F)cc3)no2)CC1 > 76.9 µM
CCc1nc2ccccc2n1Cc1ccccc1OC > 76.9 µM
CCN(C#N)c1nc(N(C)C)nc(N(C)C)n1 > 76.9 µM
